Data: PubChem BioAssay AID1963446 (Molecular Pharmacology Branch, DTP, NCI, 2024)
Certain results were filed several times, with different values. The list is limited to them. An entry can have further records. The records of an entry are repeats in other runs, samples, wells, individuals or studies. Additions like (4×) give the number of equal values in this list. A date in brackets names the month of the test.

Test system: 993429-296-R-J1-PDC complex spheroid growth, percent test/control
Assay: Anticancer human tumor 993429-296-R-J1-PDC patient-derived uterine sarcoma cell line growth inhibition [Asc]
Details: for viability, T/C: stronger effect = lower value; for IC50: compound alone
Experimental: Multicellular complex tumor spheroid response to apoptosis pathway targeting inhibitors Alrizomadlin, Pelcitoclax, and Dasminapant in combination with a variety of drugs and investigational agents in selected tumor cell lines
The MDM2 inhibitor alrizomadlin, the Bcl-2/Bcl-xL inhibitor pelcitoclax, and the IAPs inhibitor dasminapant were evaluated both individually and in combination with standard of care and investigational anticancer small molecules within a complex spheroid model of solid tumors. . Complex spheroids include a stromal component modeled by human endothelial cells (HUVEC) and fibroblasts modeled by human mesenchymal stem cells (MSCs). The concentration ranges selected for each drug and investigational agent were based upon clinically achievable concentrations if the clinical Cmax of the agent was known.
Compounds. The drugs and investigational agents: alrizomadlin (APG-115; NSC831270), pelcitoclax (APG-1252; NSC835773), dasminapant (APG-1387;NSC834197), TAK-243 (NSC785004), copanlisib (NSC809693), olaparib (NSC753686), talazoparib (NSC767125), cobimetinib (NSC 768068), eltanexor (KPT-8602, NSC 794443), abemaciclib (NSC 768073), sotorasib (NSC818433), adagrasib (NSC 831453), MRTX-1133 (NSC 836407), Iadademestat (ORY1001, NSC 806812), and RMC-4630 (NSC839698), were obtained from the NCI Developmental Therapeutics Program Chemical Repository. The FDA-approved anticancer drug set is available from the Developmental Therapeutics Program at https://dtp.cancer.gov/organization/dscb/obtaining/available plates.htm. […] The stock solutions were prepared in dimethyl sulfoxide (DMSO, Sigma-Aldrich, St. Louis, MO, cat. D2650) at 800-fold the tested concentration and stored at -70 degrees C prior to their use. All drugs and investigational agents were tested over a range starting from a high concentration at or near the clinical Cmax and decreasing in half-log increments. If the clinical Cmax for an agent had not been determined, the highest concentration tested was 10 microM.
The patient-derived cancer (PDC) cell lines include five colon adenocarcinomas: 186277-243-T-J2-PDC, 616215-338-R-J1-PDC, 439559-082-T-J2-PDC, 463943-066-T-J2-PDC, and 519858-162-T-J1-PDC; three pancreatic carcinomas: 323965-272-R-J2-PDC, 521955-158-R6-J3-PDC, and 521955-158-R2-J5-PDC; two uterine sarcomas: 327498-152-R-J2-PDC and 993429-296-R-J1-PDC; two rhabdomyosarcomas: 755483-174-R-J1-PDC and 772245-204-R-J1-PDC; two soft tissue sarcomas: 126254-015-R-J1-PDC and 494315-158-R-J1-PDC; two malignant fibrous histiocytomas: 317291-083-R-J1-PDC and 596521-263-R-J1-PDC; two breast carcinomas: 171881-019-R-J1-PDC and 885512-296-R-J2-PDC; and one ovarian carcinoma: 6556581-035-R-J-PDC were obtained from the NCI PDMR, (https://pdmr.cancer.gov). The established cell lines HSSY-2 synovial sarcoma (RRID:CVCL 8719), SYO-1 synovial sarcoma (RRID:CVCL_7146), MPNST malignant peripheral neural sheath tumor were obtained from the Sloan Kettering Institute. The following established cell lines were purchased from the American Type Culture Collection (ATCC, Manassas, VA), Sor the received from the NCI repository:, PANC-1 pancreatic carcinoma (CRL-1469, RRID:CVCL_0480), OVCAR-5 ovarian carcinoma (RRID:CVCL_1628), OVCAR-8 ovarian carcinoma (RRID:CVCL_1629), , MCF-7 breast carcinoma (CRL-12584, RRID:CVCL_0031), MDA-MB-231 breast carcinoma (CRL-12532, RRID:CVCL_0062), NCI-H1876 small cell lung carcinoma (CRL-5902, RRID:CVCL_1503), NCI-H510A small cell lung carcinoma (HTB-184, RRID:CVCL_1565), NCI-H1417 (CRL-5869, RRID:CVCL_1469), and NCI-H196 small cell lung carcinoma (CRL-5823, RRID:CVCL_1509). Dr. Peter Houghton (Greehey Children's Cancer Research Institute, University of Texas Health Science Center, San Antonio, TX) provided Rh-18 rhabdomyosarcoma (RRID:CVCL_1659). Pooled donor human umbilical vein endothelial cells (HUVEC, Lonza, cat. CC-2519) and human mesenchymal stem cells (hMSC, Lonza, cat. PT-2501) were purchased from Lonza (Walkersville, MD).
Cell Culture. […]
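Also: spheroids exposed to compounds for seven days.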

SMILES: CCN1C(C(=O)NC23CCC(C(=O)O)(CC2)CC3)C(c2cccc(Cl)c2F)C2(C(=O)Nc3cc(Cl)ccc32)C12CCCCC2 (configuration not stated)
- viability, T/C (compound alone 0.03 µM): 93.3, 106, 99.8, 91.9 (2×), 101, 90.7, 79.8, 91, 98.7, 91.1, 87.8, 100, 93.9% [2022-09] and 99.7% [2022-10]
- viability, T/C (compound alone 0.0949 µM): 111, 113, 89.2, 99.4, 92, 97.4, 101, 93.6, 90.4, 87.5, 87.7, 86.4, 87, 76.3% [2022-09] and 110% [2022-10]
- viability, T/C (compound alone 0.3 µM): 92.3 (2×), 89.1, 102 (2×), 108, 89.6, 82.8, 92.6, 103, 87, 95.8, 88.9, 92.1% [2022-09] and 104% [2022-10]
- viability, T/C (compound alone 0.949 µM): 88, 103, 89.5, 96.9, 85.3, 80.1, 89.1, 112, 93.8, 108, 98.4, 107, 90.8, 84.6% [2022-09] and 95% [2022-10]
- viability, T/C (compound alone 3 µM): 87, 100, 84.5, 99.8, 98.4, 83.6, 93, 76, 101, 71.8, 86.4, 74.8, 99.6, 88.1% [2022-09] and 96.7% [2022-10]

SMILES: C#Cc1c(F)ccc2cc(O)cc(-c3ncc4c(N5CC6CCC(C5)N6)nc(OCC56CCCN5CC(F)C6)nc4c3F)c12 (configuration not stated)
- viability, T/C (compound alone 10 µM): 5.06%, 3.76% [2022-09] and 89.8% [2022-10]

SMILES: CNC(C)C(=O)NC1CN(S(=O)(=O)c2cccc(S(=O)(=O)N3CCC4CCC(C(=O)NC(c5ccccc5)c5ccccc5)N4C(=O)C(NC(=O)C(C)NC)C3)c2)CCC2CCC(C(=O)NC(c3ccccc3)c3ccccc3)N2C1=O (configuration not stated)
- viability, T/C (compound alone 0.316 µM): 50.2%, 71.8% [2022-09] and 44.8, 58.1, 60.6, 45.7, 40.3, 65.2, 59.5, 68.4, 49.8, 53, 49.5, 57.4, 47.1% [2022-10]
- IC50 (run of 10/03/2022): 227 nM, 562 nM, 132 nM, 190 nM, 324 nM, 425 nM, > 1 µM, 295 nM

SMILES: Cc1c(S(C)(=O)=O)c(-c2cc(F)cc(N3CCN(c4ccc(NS(=O)(=O)c5ccc(NC(CCN6CCC(C(=O)OCCCP(=O)(O)O)CC6)CSc6ccccc6)c(S(=O)(=O)C(F)(F)F)c5)cc4)CC3)c2)c(-c2ccc(Cl)cc2)n1C(C)C (configuration not stated)
- viability, T/C (compound alone 0.1 µM): 78.4, 79.8 (2×), 68.8, 73.7, 73.5, 54.7, 70.3, 71, 64, 85.3, 80.2, 73.8, 89.7%
- viability, T/C (compound alone 1 µM): 51.6, 56.2, 63.3, 47.3, 51.4, 53.1, 47.4, 42.9, 49.3, 52, 67.8, 69.8, 57.4% (2×)
- viability, T/C (compound alone 10 µM): 72.8, 100, 61.4, 56.8, 80.5, 76.9, 87.4, 74.2, 76.5, 89.5 (2×), 75.1, 92.7, 80.4%
- IC50 (run of 09/27/2022): > 10 µM and 676 nM
